Results from patent US8044100B2, “Methods and compositions for treating amyloid-related diseases” (Bellus Health Inc., priority 2004, dated 2011).
Some entries share one result that the patent states for a list of compounds.

molecular target: Aβ40 (Homo sapiens, UniProt P05067); assay: Mass spectrometry (MS) assay for binding to soluble Aβ40; conditions: @ 200 μM test compound and 20 μM solubilized Aβ40, pH 7.4; class limits; compounds tested at 200 or 400 μM
Sequence (P05067 672-711 limits assumed): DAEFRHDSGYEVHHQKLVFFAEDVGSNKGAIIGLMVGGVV

**Q.** `O=S(=O)(O)CCCN[C@@H]1CCc2ccccc21` [DO] was tested. Which “Aβ binding (%)” value did it give?
**A.** Its value is 60-100% @ 200 μM.

**Q.** `CC(C)(C)NC(=O)NCCCS(=O)(=O)O` [DP] was tested. Which “Aβ binding (%)” value did it give?
**A.** The value was 20-44% @ 200 μM.

**Q.** `CC(C)C(C)NCCCS(=O)(=O)O` (stereo not shown) [DQ] was tested. Which “Aβ binding (%)” value did it give?
**A.** Its value is 20-44% @ 200 μM.

**Q.** For `CC1CCC(NCCCS(=O)(=O)O)CC1` (stereo not shown) [DR], which “Aβ binding (%)” value is on record?
**A.** Its value is 20-44% @ 200 μM.

**Q.** `CCC(C)CNCCCS(=O)(=O)O` (stereo not shown) [DS] was tested. Which “Aβ binding (%)” value did it give?
**A.** Its value is 20-44% @ 200 μM.

**Q.** With `CC(C)(C)C(=O)NCCCS(=O)(=O)O` [DT] as the compound, how does the “Aβ binding (%)” value read?
**A.** Its value is 20-44% @ 200 μM.

**Q.** With `CC(C)(C)NCCS(=O)(=O)O` [DU] as the compound, how does the “Aβ binding (%)” value read?
**A.** Its value is 60-100% @ 200 μM.

**Q.** Which “Aβ binding (%)” value does the source give for `O=S(=O)(O)CCCNCC1CCCCC1` [DV] here?
**A.** The value was 60-100% @ 200 μM.

**Q.** For `C#CC(CC)(CC)NCCCS(=O)(=O)O` [DW], which “Aβ binding (%)” value is on record?
**A.** The value was 30-69% @ 200 μM.

**Q.** For `C#CC1(NCCCS(=O)(=O)O)CCCCC1` [DX], which “Aβ binding (%)” value is on record?
**A.** Its value is 60-100% @ 200 μM.

**Q.** `O=S(=O)(O)CCCNCC(O)c1ccccc1` (stereo not shown) [DY] was tested. Which “Aβ binding (%)” value did it give?
**A.** The value was 60-100% @ 200 μM.

**Q.** For `COc1ccc([C@H](C)NCCCS(=O)(=O)O)cc1` [DZ], which “Aβ binding (%)” value is on record?
**A.** The value was 60-100% @ 200 μM.

**Q.** With `O=S(=O)(O)CCCN1CC=C(CCCc2ccccc2)CC1` [D] as the compound, how does the “Aβ binding (%)” value read?
**A.** Its value is 20-44% @ 200 μM.

**Q.** For `O=S(=O)(O)CCCNCCc1ccc(Br)cc1` [EA], which “Aβ binding (%)” value is on record?
**A.** The value was 30-69% @ 200 μM.

**Q.** How did the “Aβ binding (%)” value turn out when `O=S(=O)(O)CCCN[C@H]1CCc2ccccc21` [EB] was run?
**A.** Its value is 60-100% @ 200 μM.

**Q.** `CC1CC(NCCCS(=O)(=O)O)CC(C)(C)C1` (stereo not shown) [ED] was tested. Which “Aβ binding (%)” value did it give?
**A.** The value was 60-100% @ 200 μM.

**Q.** Which “Aβ binding (%)” value does the source give for `O=S(=O)(O)CCCNC1Cc2ccccc2C1` [EE] here?
**A.** Its value is 60-100% @ 200 μM.

**Q.** Which “Aβ binding (%)” value does the source give for `O=S(=O)(O)CCCNc1ccc(-c2ccccc2)cc1` [EF] here?
**A.** The value was 20-44% @ 200 μM.

**Q.** `COC[C@H](NCCCS(=O)(=O)O)[C@@H](O)c1ccccc1` [EG] was tested. Which “Aβ binding (%)” value did it give?
**A.** The value was 60-100% @ 200 μM.

**Q.** Which “Aβ binding (%)” value does the source give for `C[C@@H]1[C@H]2CC(C[C@H]1NCCCS(=O)(=O)O)C2(C)C` [EH] here?
**A.** Its value is 60-100% @ 200 μM.

**Q.** How did the “Aβ binding (%)” value turn out when `COCC(C)NCCCS(=O)(=O)O` (stereo not shown) [EI] was run?
**A.** The value was 20-39% @ 400 μM.

**Q.** For `O=S(=O)(O)CCCN[C@@H](CO)Cc1ccccc1` [EJ], which “Aβ binding (%)” value is on record?
**A.** The value was 30-69% @ 200 μM.

**Q.** For `O=S(=O)(O)CCCN[C@H](CO)Cc1ccccc1` [EK], which “Aβ binding (%)” value is on record?
**A.** Its value is 60-100% @ 200 μM.

**Q.** How did the “Aβ binding (%)” value turn out when `O=C(OCc1ccccc1)[C@H](Cc1ccccc1)NCCCS(=O)(=O)O` [EL, 3-{[(1S)-1-benzyl-2-(benzyloxy)-2-oxoethyl]amino}propane-1-sulfonic acid] was run?
**A.** Its value is 30-69% @ 200 μM.

**Q.** For `CN(CCCS(=O)(=O)O)C(C)(C)C` [EN], which “Aβ binding (%)” value is on record?
**A.** The value was 20-44% @ 200 μM.

**Q.** `O=S(=O)(O)CCCN[C@@H]1c2ccccc2C[C@@H]1O` [EO] was tested. Which “Aβ binding (%)” value did it give?
**A.** Its value is 20-44% @ 200 μM.

**Q.** Which “Aβ binding (%)” value does the source give for `CC(C)[C@@H](CO)NCCCS(=O)(=O)O` [EP] here?
**A.** Its value is 20-44% @ 200 μM.

**Q.** Which “Aβ binding (%)” value does the source give for `CC(C)[C@H](NCCCS(=O)(=O)O)C(N)=O` [EQ] here?
**A.** The value was 20-44% @ 200 μM.

**Q.** With `CC(C)(C)NCCCCS(=O)(=O)O` [ER] as the compound, how does the “Aβ binding (%)” value read?
**A.** The value was 30-69% @ 200 μM.

same assay, conditions: @ 400 μM test compound and 40 μM solubilized Aβ40, pH 7.4; class limits; compounds tested at 200 or 400 μM

**Q.** With `O=S(=O)(O)CCCN[C@@H]1CCc2ccccc21` [DO] as the compound, how does the “Aβ binding (%)” value read?
**A.** The value was 90-100% @ 400 μM;.

**Q.** `CC(C)(C)NC(=O)NCCCS(=O)(=O)O` [DP] was tested. Which “Aβ binding (%)” value did it give?
**A.** The value was 45-59% @ 400 μM;.

**Q.** `CC(C)C(C)NCCCS(=O)(=O)O` (stereo not shown) [DQ] was tested. Which “Aβ binding (%)” value did it give?
**A.** Its value is 45-59% @ 400 μM;.

**Q.** With `CC1CCC(NCCCS(=O)(=O)O)CC1` (stereo not shown) [DR] as the compound, how does the “Aβ binding (%)” value read?
**A.** The value was 45-59% @ 400 μM;.

**Q.** How did the “Aβ binding (%)” value turn out when `CCC(C)CNCCCS(=O)(=O)O` (stereo not shown) [DS] was run?
**A.** Its value is 45-59% @ 400 μM;.

**Q.** For `CC(C)(C)C(=O)NCCCS(=O)(=O)O` [DT], which “Aβ binding (%)” value is on record?
**A.** The value was 45-59% @ 400 μM;.

**Q.** How did the “Aβ binding (%)” value turn out when `CC(C)(C)NCCS(=O)(=O)O` [DU] was run?
**A.** The value was 90-100% @ 400 μM;.

**Q.** Which “Aβ binding (%)” value does the source give for `O=S(=O)(O)CCCNCC1CCCCC1` [DV] here?
**A.** Its value is 90-100% @ 400 μM;.

**Q.** With `C#CC(CC)(CC)NCCCS(=O)(=O)O` [DW] as the compound, how does the “Aβ binding (%)” value read?
**A.** The value was 70-89% @ 400 μM;.

**Q.** How did the “Aβ binding (%)” value turn out when `C#CC1(NCCCS(=O)(=O)O)CCCCC1` [DX] was run?
**A.** Its value is 90-100% @ 400 μM;.

**Q.** For `O=S(=O)(O)CCCNCC(O)c1ccccc1` (stereo not shown) [DY], which “Aβ binding (%)” value is on record?
**A.** The value was 90-100% @ 400 μM;.

**Q.** For `COc1ccc([C@H](C)NCCCS(=O)(=O)O)cc1` [DZ], which “Aβ binding (%)” value is on record?
**A.** The value was 90-100% @ 400 μM;.

**Q.** With `O=S(=O)(O)CCCN1CC=C(CCCc2ccccc2)CC1` [D] as the compound, how does the “Aβ binding (%)” value read?
**A.** The value was 45-59% @ 400 μM;.

**Q.** For `O=S(=O)(O)CCCNCCc1ccc(Br)cc1` [EA], which “Aβ binding (%)” value is on record?
**A.** Its value is 70-89% @ 400 μM;.

**Q.** How did the “Aβ binding (%)” value turn out when `O=S(=O)(O)CCCN[C@H]1CCc2ccccc21` [EB] was run?
**A.** The value was 90-100% @ 400 μM;.

**Q.** How did the “Aβ binding (%)” value turn out when `CC1CC(NCCCS(=O)(=O)O)CC(C)(C)C1` (stereo not shown) [ED] was run?
**A.** Its value is 90-100% @ 400 μM;.

**Q.** For `O=S(=O)(O)CCCNC1Cc2ccccc2C1` [EE], which “Aβ binding (%)” value is on record?
**A.** Its value is 90-100% @ 400 μM;.

**Q.** For `O=S(=O)(O)CCCNc1ccc(-c2ccccc2)cc1` [EF], which “Aβ binding (%)” value is on record?
**A.** Its value is 45-59% @ 400 μM;.

**Q.** With `COC[C@H](NCCCS(=O)(=O)O)[C@@H](O)c1ccccc1` [EG] as the compound, how does the “Aβ binding (%)” value read?
**A.** Its value is 90-100% @ 400 μM;.

**Q.** `C[C@@H]1[C@H]2CC(C[C@H]1NCCCS(=O)(=O)O)C2(C)C` [EH] was tested. Which “Aβ binding (%)” value did it give?
**A.** The value was 90-100% @ 400 μM;.

**Q.** With `COCC(C)NCCCS(=O)(=O)O` (stereo not shown) [EI] as the compound, how does the “Aβ binding (%)” value read?
**A.** Its value is 20-39% @ 400 μM.

**Q.** For `O=S(=O)(O)CCCN[C@@H](CO)Cc1ccccc1` [EJ], which “Aβ binding (%)” value is on record?
**A.** Its value is 70-89% @ 400 μM;.

**Q.** How did the “Aβ binding (%)” value turn out when `O=S(=O)(O)CCCN[C@H](CO)Cc1ccccc1` [EK] was run?
**A.** Its value is 90-100% @ 400 μM;.

**Q.** For `O=C(OCc1ccccc1)[C@H](Cc1ccccc1)NCCCS(=O)(=O)O` [EL, 3-{[(1S)-1-benzyl-2-(benzyloxy)-2-oxoethyl]amino}propane-1-sulfonic acid], which “Aβ binding (%)” value is on record?
**A.** The value was 70-89% @ 400 μM;.

**Q.** How did the “Aβ binding (%)” value turn out when `CN(CCCS(=O)(=O)O)C(C)(C)C` [EN] was run?
**A.** The value was 45-59% @ 400 μM;.

**Q.** Which “Aβ binding (%)” value does the source give for `O=S(=O)(O)CCCN[C@@H]1c2ccccc2C[C@@H]1O` [EO] here?
**A.** The value was 45-59% @ 400 μM;.

**Q.** For `CC(C)[C@@H](CO)NCCCS(=O)(=O)O` [EP], which “Aβ binding (%)” value is on record?
**A.** The value was 45-59% @ 400 μM;.

**Q.** With `CC(C)[C@H](NCCCS(=O)(=O)O)C(N)=O` [EQ] as the compound, how does the “Aβ binding (%)” value read?
**A.** Its value is 45-59% @ 400 μM;.

**Q.** With `CC(C)(C)NCCCCS(=O)(=O)O` [ER] as the compound, how does the “Aβ binding (%)” value read?
**A.** The value was 70-89% @ 400 μM;.
